Experimental data: PubChem BioAssay AID686979 (National Center for Advancing Translational Sciences (NCATS), 2013)
“And” between values parts separate entries of the source, which are not always exact repeats. Equal values may be shown once. In all, about 420,000 compounds went through this assay and about 50,000 (12%) were called active. Inconclusive results, whose numbers are uncertain, are shown with a selection of clear calls. Calls follow the shape of the dose curve; as a rule, active = well fitted inhibition curve with a large enough effect; inconclusive = small, poorly fitted or top-dose-only effect; inactive = flat fitted curve, though single readings scatter. Potencies beside an inconclusive call are fits to weak or partial responses and may not hold up.
% is scaled to controls: 0 for no effect and ±100 for the full control effect; potency is read from the fitted curve at half-maximal effect; tags tell the direction and shape of the fitted curve.

Assay: qHTS for Inhibitors of human tyrosyl-DNA phosphodiesterase 1 (TDP1): qHTS in cells in presence of CPT; also: nearly all actives have a fitted effect of over 55% in size
Conditions: chicken DT40 Tdp1-/-;hTDP1 cells + 20 nM CPT, ATP luminescence, 48 h; activity change, negative = growth inhibition: at 46.2 µM (top of the series) unless noted
Procedure, shortened: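 Chicken DT40 Tdp1-/- cells stably complemented with human TDP1 were seeded at 400 cells/well in medium containing 20 nM camptothecin, exposed to pin-transferred compounds, and grown at 37 °C for at least 48 hr. Viability was read as ATP luminescence.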
In the case of `CC1CCN(c2cc(=O)n(C3CCCCC3)c(=O)[nH]2)CC1`, the Potency is reported as inconclusive: 9.2 µM [inhibitor, partial curve].
For `CN1CCN(Cc2cc(COCc3ccccc3)c3cccnc3c2O)CC1`, the Potency was active: 3.26 µM.
In the case of `O=C(CN1C(=O)COc2ccc(S(=O)(=O)N3CCOCC3)cc21)NCc1ccccn1`, the “activity change, negative = growth inhibition” value is reported as inactive: -2.83%.
With `Cc1ccccc1NC(=O)Cn1c(=O)n(Cc2ccc3c(c2)OCO3)c(=O)c2ccccc21` the “activity change, negative = growth inhibition” value was inactive: -23.7%.
With `O=C(c1ccc(COc2ccccc2)o1)N1CCN(S(=O)(=O)c2ccccc2Cl)CC1` the Potency was inconclusive: 20.6 µM [inhibitor, single point].
In the case of `O=C(c1ccc(Cl)c(S(=O)(=O)NCc2ccco2)c1)N1CCN(c2ccccc2F)CC1`, the Potency is reported as inconclusive: 29.1 µM [inhibitor, single point].
For `COc1cccc(NC(=O)Cn2cc(C(=O)c3ccc(C)cc3)c(=O)c3cc(OC)ccc32)c1`, the Potency was inconclusive: 25.9 µM [inhibitor, single point].
In the case of `COc1ccc(S(=O)(=O)Nc2ccc3c(c2)CC(=O)N([C@H](C)CO)C[C@H](C)[C@H](CN(C)C(=O)Nc2ccc4c(c2)OCO4)O3)cc1`, the Potency is reported as inconclusive: 25.9 µM [inhibitor, single point].
In the case of `CCCCC(=O)N1CCN(c2nc3ccc(Br)cc3s2)CC1`, the Potency is reported as active: 16.4 µM.
For `O=C(COc1ccc(Cl)cc1)N1CCN(S(=O)(=O)c2cc(F)ccc2F)CC1`, the Potency was inconclusive: 29.1 µM [inhibitor, single point].
In the case of `CCCCCCCCN1[C@@H](CC(C)=O)c2cc(C(F)(F)F)ccc2S1(=O)=O`, the Potency is reported as inconclusive: 35.5 µM [inhibitor, single point] and inconclusive: 29.1 µM [inhibitor, single point].
For `Cc1ccc(S(=O)(=O)NCCc2cn3ccsc3n2)c(C)c1`, the “activity change, negative = growth inhibition” value was inactive: -20%.
In the case of `COCCNC(=O)c1ccc(CS(=O)(=O)c2ccccc2)o1`, the Potency is reported as active: 18.4 µM.
With `O=c1c(-c2cc(F)cc(F)c2)nc2cnc(Oc3ccccc3)nc2n1C1CC1` the “activity change, negative = growth inhibition” value was inactive: -16%.
With `Cc1cc2ccccc2n1CCNC(=O)c1ccc(Br)cc1` the Potency was inconclusive: 29.1 µM [inhibitor, single point].
In the case of `C=CCNC(=S)N1CCN(Cc2ccccc2)CC1`, the “activity change, negative = growth inhibition” value is reported as inactive: -17.1%.
For `CN(c1ccc(C(=O)Nc2cccc(O)c2)cc1)S(=O)(=O)c1ccccc1`, the Potency was inconclusive: 18.4 µM [inhibitor, single point].
For `Cc1cc(NCCCn2ccnc2)n2nc(C)c(-c3ccccc3)c2n1`, the Potency was inconclusive: 0.13 µM [inhibitor, full curve, poor fit].
In the case of `CC1(C)SC2C(NC(=O)C(NC(=O)N3CCNC3=O)c3ccccc3)C(=O)N2C1C(=O)O` (centres undefined), the “activity change, negative = growth inhibition” value is reported as inactive: 5.06%.
For `N#Cc1cc2c(nc1S(=O)(=O)Cc1ccccc1)CCCC2`, the “activity change, negative = growth inhibition” value was inactive: -0.676%.
With `CCOC(=O)N1CCN(S(=O)(=O)c2cccc3ccc(C)nc23)CC1` the “activity change, negative = growth inhibition” value was inactive: -12.3%.
In the case of `CC(C)c1ccc(NC(=S)NC2CCCCCC2)cc1`, the Potency is reported as inconclusive: 29.1 µM [inhibitor, single point].
In the case of `Cc1cccc(C2CC(=O)Nc3cc4c(cc32)OCO4)c1` (centres undefined), the Potency is reported as inconclusive: 25.9 µM [inhibitor, single point].
With `Cc1ccc(CN2CCNC(=O)C2CC(=O)NCCCn2nnc3ccccc32)cc1` (centres undefined) the “activity change, negative = growth inhibition” value was inactive: 4.74%.
In the case of `CCc1nc2nc(C)cc(Nc3cccc(C)c3C)n2n1`, the Potency is reported as inconclusive: 11.6 µM [inhibitor, partial curve].
For `O=[N+]([O-])c1ccc(O)c(/C=N/NC(=S)Nc2ccc(Cl)cc2Cl)c1`, the Potency was active: 16.4 µM.
For `O=C(CCNC(=O)c1ccc(Br)cc1)NNC(=O)C1COc2ccccc2O1` (centres undefined), the “activity change, negative = growth inhibition” value was inactive: 1.46%.
For `COc1ccccc1OCC(=O)Nc1oc(-c2ccccc2)c(-c2ccccc2)c1C#N`, the “activity change, negative = growth inhibition” value was inactive: -0.694%.
In the case of `COc1ccc(-c2c(C(C)=O)c(C)nc3sc4c(=N)n(N)cnc4c23)cc1`, the Potency is reported as active: 25.9 µM.
For `Cc1csc(NC(=O)c2ccccc2O)n1`, the “activity change, negative = growth inhibition” value was inactive: -14.8%.
In the case of `Cc1cccc(-n2ccnc2SCC(=O)Nc2nnc(C)s2)c1`, the Potency is reported as inconclusive: 29.1 µM [inhibitor, partial curve, poor fit].
For `COc1nc2c(c(-c3cc(Br)cs3)c1C#N)Cc1ccccc1-2`, the Potency was inconclusive: 29.1 µM [inhibitor, single point].
For `CC(C)CNS(=O)(=O)c1ccc(CCC(=O)N2CCC(C(N)=O)CC2)cc1`, the “activity change, negative = growth inhibition” value was inactive: 3.72%.
With `CC(C)c1ccc(OCC(=O)N(Cc2cccs2)C2CCS(=O)(=O)C2)cc1` (centres undefined) the Potency was inconclusive: 23.1 µM [inhibitor, single point].
In the case of `CN(C)Cc1cn(-c2ccccc2)nc1-c1ccccc1`, the Potency is reported as inconclusive: 35.5 µM [inhibitor, single point].
With `CCN1CCN(c2ccc(S(=O)(=O)N3CCCCC3)cc2NC(=O)/C=C/c2ccc([N+](=O)[O-])cc2)CC1` the Potency was inconclusive: 18.4 µM [inhibitor, single point].
With `O=C(NCc1ccco1)c1ccccc1-c1nc(-c2ccccc2)no1` the Potency was inconclusive: 29.1 µM [inhibitor, single point].
With `N#Cc1ccc(-c2nnnn2-c2ccc3c(c2)OCO3)cc1` the “activity change, negative = growth inhibition” value was inactive: -14.7%.
With `O=C(NCc1ccc(OC(F)(F)F)cc1)C1CC2Cn3c(nc4ccccc43)C2N1Cc1ccccc1` (centres undefined) the Potency was inconclusive: 29.1 µM [inhibitor, single point].
With `COc1ccc(NC(=O)COC(=O)c2ncc(Cl)c(Cl)c2Cl)c(OC)c1` the “activity change, negative = growth inhibition” value was inactive: -9.78%.
In the case of `COc1ccc(NC2CCCN(C(=O)C3(C)CCCCC3)C2)cc1` (centres undefined), the Potency is reported as inconclusive: 29.1 µM [inhibitor, single point].
With `Fc1ccc(CNCc2ccccc2Cl)cc1` the “activity change, negative = growth inhibition” value was inactive: -19.7%.
In the case of `COc1ccc(N2CCC(CNC(=S)Nc3c(C)cc(C)cc3C)C2)cc1` (centres undefined), the Potency is reported as inconclusive: 29.1 µM [inhibitor, single point].
For `CCN(CC)c1ccc(NC(=O)CCCN2C(=O)C(c3ccccc3)Oc3cccnc32)c(C)c1` (centres undefined), the Potency was active: 18.4 µM.
For `COc1ccc(-n2c(C)cc(-c3cn4cccc(C)c4n3)c2C)cc1`, the Potency was inconclusive: 20.6 µM [inhibitor, single point].
For `CCCC[C@@H]1C[C@H]1[C@@H](NC(=O)c1ccco1)c1ccc(Cl)cc1`, the Potency was inconclusive: 20.6 µM [inhibitor, single point].
For `CCC(C(=O)N1CCN(c2ccccc2)CC1)n1c(C)c2cnn(-c3ccccc3)c(=O)c2c1C` (centres undefined), the Potency was inconclusive: 18.4 µM [inhibitor, single point].
For `Cc1nnc(N2CCC(C(=O)NCCC(C)C)CC2)c2nn(-c3ccc(Cl)cc3)c(C)c12`, the Potency was inconclusive: 29.1 µM [inhibitor, single point].
For `Cc1ccc(CN2[C@@H](c3ccccc3)COCCS2(=O)=O)cc1`, the Potency was inconclusive: 22.4 µM [inhibitor, single point] and inconclusive: 23.1 µM [inhibitor, single point].
With `OC[C@@H]1CCC[C@@H](n2cnc3c(=S)nc[nH]c32)O1` the Potency was inconclusive: 3.98 µM [inhibitor, full curve, poor fit].
In the case of `O=C1C(=Cc2cn(-c3ccccc3)nc2-c2ccc(OCc3ccccc3F)cc2)SC(=S)N1CCS(=O)(=O)O`, the Potency is reported as inconclusive: 20.6 µM [inhibitor, single point].
In the case of `COc1ccc(S(=O)(=O)Nc2ccc(N3CCOCC3)nc2)cc1`, the “activity change, negative = growth inhibition” value is reported as inactive: -18.7%.
For `CC(=O)c1c(NCCc2ccccc2)nc(=S)n(-c2ccccc2)c1C`, the Potency was active: 20.6 µM.
In the case of `Cc1ccc(OCC(=O)Nc2ccc(N3CCN(C(=O)c4ccco4)CC3)cc2)cc1`, the Potency is reported as inconclusive: 18.4 µM [inhibitor, single point].
In the case of `CCOC(=O)N1CCC(NC(=O)c2ccc3c(c2)sc2nc(-c4ccccc4)cn23)CC1`, the Potency is reported as active: 14.6 µM.
With `COc1cccc(CN(C)C(=O)c2cccc(OCc3ccccc3)c2)c1` the “activity change, negative = growth inhibition” value was inactive: -12.8%.
For `CC(=O)Nc1ccc(OCC(O)CN2CCN(c3ccc(C)c(Cl)c3)CC2)cc1` (centres undefined), the Potency was inconclusive: 29.1 µM [inhibitor, single point].
With `CC(C)(C)OC(=O)NCCCCCNC(=O)c1ncn(Cc2ccccc2)c1C(=O)NCCCCCNC(=O)OC(C)(C)C` the Potency was inconclusive: 29.1 µM [inhibitor, single point].
In the case of `CSc1ccc(-c2nnc(NC(=O)c3ccc4c(c3)OCCO4)o2)cc1`, the Potency is reported as inconclusive: 29.1 µM [inhibitor, single point].
In the case of `Cc1ccc(N2CC(C(=O)Nc3ccc(N(C)C)cc3)CC2=O)cc1Cl` (centres undefined), the Potency is reported as inconclusive: 14.6 µM [inhibitor, partial curve].
In the case of `C#CCn1c(=NC(=O)c2ccc(Br)s2)sc2cccc(OC)c21`, the Potency is reported as inconclusive: 23.1 µM [inhibitor, single point].
In the case of `O=C(CC(=O)N/N=C/c1ccc(F)cc1)N/N=C/c1ccc(F)cc1`, the “activity change, negative = growth inhibition” value is reported as inactive: -2.67%.
With `CN(CCOc1cccc2ccccc12)Cc1ccccc1` the “activity change, negative = growth inhibition” value was inactive: -2.49%.
In the case of `CCc1ccc(OC2(C)CCN(Cc3ccc4c(c3)OCCO4)C2)cc1` (centres undefined), the Potency is reported as inconclusive: 23.1 µM [inhibitor, single point].
In the case of `O=C(Nc1ccc(F)cc1)C1CCCN(S(=O)(=O)c2cccc3cccnc23)C1` (centres undefined), the Potency is reported as inconclusive: 29.1 µM [inhibitor, single point].
With `O=C(CCCN1C(=O)/C(=C/c2cccs2)SC1=S)Nc1ccccn1` the Potency was inconclusive: 29.1 µM [inhibitor, single point].
With `Cc1cc(C)c2nc3nc(C)c(C)cc3c(N)c2c1` the Potency was active: 8.2 µM.
In the case of `Cc1ccc(NC(=O)C2CCN(S(=O)(=O)c3ccc4[nH]c(=O)ccc4c3)CC2)c(C)c1`, the “activity change, negative = growth inhibition” value is reported as inactive: -4.32%.
For `OC(c1cccc(Cl)c1)c1ncc(-c2ccc(C(F)(F)F)cc2)[nH]1` (centres undefined), the Potency was inconclusive: 29.1 µM [inhibitor, single point].
